Results: article PMC4336329 (PLoS ONE, 2015)
About 14,000 (4.5%) of roughly 310,000 compounds showed an effect of 50% or more. The effect is printed as a negative number. The list shows a part of the results.

Target: human ether-à-go-go-related gene (hERG) potassium channel (human, UniProt Q12809)
Assay: primary screen, population patch clamp on CHO cells stably expressing hERG
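Note: peak tail current of the secondary pulse compared with the same well before compound.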

Sequence of human ether-à-go-go-related gene (hERG) potassium channel (Q12809 whole entry, looked up): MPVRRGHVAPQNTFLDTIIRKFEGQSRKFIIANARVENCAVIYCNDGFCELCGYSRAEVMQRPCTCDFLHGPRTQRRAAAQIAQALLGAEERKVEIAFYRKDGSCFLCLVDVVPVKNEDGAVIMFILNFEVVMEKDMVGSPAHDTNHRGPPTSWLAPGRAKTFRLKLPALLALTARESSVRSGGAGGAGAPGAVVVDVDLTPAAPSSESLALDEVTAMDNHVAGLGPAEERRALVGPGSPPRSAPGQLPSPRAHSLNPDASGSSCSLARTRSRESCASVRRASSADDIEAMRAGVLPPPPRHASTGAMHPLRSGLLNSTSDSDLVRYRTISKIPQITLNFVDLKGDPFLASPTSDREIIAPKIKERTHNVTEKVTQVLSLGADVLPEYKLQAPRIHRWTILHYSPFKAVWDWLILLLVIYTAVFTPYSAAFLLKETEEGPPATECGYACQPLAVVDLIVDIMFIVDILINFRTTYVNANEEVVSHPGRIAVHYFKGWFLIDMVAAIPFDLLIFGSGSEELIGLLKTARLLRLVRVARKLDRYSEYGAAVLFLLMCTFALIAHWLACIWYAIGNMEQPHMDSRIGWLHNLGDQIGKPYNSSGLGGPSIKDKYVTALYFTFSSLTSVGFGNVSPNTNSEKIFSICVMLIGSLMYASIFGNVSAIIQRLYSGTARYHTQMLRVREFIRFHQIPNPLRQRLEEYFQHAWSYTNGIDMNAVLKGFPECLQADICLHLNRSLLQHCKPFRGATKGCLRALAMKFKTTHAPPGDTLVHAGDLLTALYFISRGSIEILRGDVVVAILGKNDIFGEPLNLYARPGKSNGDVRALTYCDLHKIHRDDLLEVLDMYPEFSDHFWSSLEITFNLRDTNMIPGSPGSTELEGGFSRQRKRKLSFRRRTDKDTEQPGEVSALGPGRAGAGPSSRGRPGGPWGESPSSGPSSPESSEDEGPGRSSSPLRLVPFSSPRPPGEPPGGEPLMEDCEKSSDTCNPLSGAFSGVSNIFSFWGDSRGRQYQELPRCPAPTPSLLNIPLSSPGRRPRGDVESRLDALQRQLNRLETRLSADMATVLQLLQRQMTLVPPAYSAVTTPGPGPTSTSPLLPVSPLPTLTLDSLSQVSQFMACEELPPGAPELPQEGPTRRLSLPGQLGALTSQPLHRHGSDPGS

| SMILES | hERG current change (%, negative = inhibition) at 10uM [%] |
| --- | --- |
| O=C(CCc1nc2cccnc2n1Cc1ccccc1)NCCc1ccc(Cl)cc1 | -78.6 |
| O=C(NCC(O)c1ccccc1)c1ccccc1 (stereo not drawn) | 14.7 |
| O=C(OCC(=O)N(CCc1ccccc1)Cc1ccccc1)c1ccccc1NCCO | -0.338 |
| O=C(Cc1cccs1)Nc1ccc(-c2nc3ccccc3[nH]2)cc1 | 4.9 |
| NS(=O)(=O)OCC1CCCCC1 | 21.2 |
| O=C(Nc1ccc(OC(=O)c2cccnc2)cc1)c1cccnc1 | 4.18 |
| Clc1ncnc2scc(-c3ccc(Br)cc3)c12 | 7.97 |
| O=C(CCc1nnc2ccc(NCc3ccco3)nn12)Nc1cc(F)ccc1F | -23.2 |
| CC(SC#N)C(=O)C12CC3CC(CC(C3)C1)C2 (stereo not drawn) | -8.99 |
| O=C(CN1CCN(c2ccc(Cl)cc2)CC1)c1ccc2c(c1)OCO2 | -16.7 |
| c1ccc(N2CCN(Cc3ccsc3)CC2)nc1 | -18.1 |
| CCNC(=O)CC1C(=O)N(c2ccc(C)cc2)C(=O)N1CCOC (stereo not drawn) | 32.3 |
| O=C(CS(=O)(=O)c1ccccc1)Nc1ccccn1 | 40.8 |
| CCOC(=O)C1CCN(C(=O)c2ccccc2NC(C)=O)CC1 | 10.4 |
| COc1ccc(/C=C/C(=O)NC(C)CCc2ccccc2)cc1 (stereo not drawn) | -17 |
| Cn1c(CSCc2ccc(Cl)cc2)n[nH]c1=S | 11 |
| O=C(NC1CCS(=O)(=O)C1)c1cccnc1 (stereo not drawn) | 7.85 |
| O=C(c1cccs1)N(c1ccc(F)cc1)C1C=CS(=O)(=O)C1 (stereo not drawn) | 2.79 |
| COc1ccccc1C(=O)NC(CCSC)C(=O)NNC(=O)C(C)Oc1ccccc1F (stereo not drawn) | 0.592 |
| CCOC(=O)c1sc(=NC(=O)c2cccc(C)c2)n(C)c1C | 8.38 |
| O=C(Nc1ccc(-c2csnn2)cc1)C1CC1 | -1.71 |
| O=C(Nc1ccc(N2CCCCCC2)cc1)c1cccc(S(=O)(=O)N2CCOCC2)c1 | -18 |
| COc1ccccc1NC(=O)Nc1nc(CC(=O)N2CCN(c3ccccc3F)CC2)cs1 | 17 |
| O=C(c1cccs1)N1CCn2c1nc1ccccc12 | -25.5 |

| SMILES | hERG current change (%, negative = inhibition) at 10uM [%] |
| --- | --- |
| CC(NC(=O)c1cc(-c2ccccc2)on1)c1ccccc1 (stereo not drawn) | 6.57 |
| c1ccc(N2CCCCC2)c(Nc2nc3ccccc3n3cnnc23)c1 | 9.33 |
| CCOc1ccc(-c2nc(CSCC(=O)NC3CC3)c(C)o2)cc1 | 12.8 |
| COc1ccc(NC(=O)CSc2nc3nc(C)cc(C)n3n2)cc1 | -11.2 |
| COc1cc(C(=O)Nc2ccccc2N2CCOCC2)ccc1OCC(=O)N1CCOCC1 | 7.84 |
| Cc1[nH]nc2c1C(c1cnn(C)c1)C(C#N)=C(N)O2 (stereo not drawn) | -7.8 |
| COc1ccc(SCCN2CC[C@@H](C(C)(C)C)CCC2=O)cc1 | -25.7 |
| O=C(COc1ncnc2scc(-c3ccccc3)c12)NCCN1C(=O)CSC1=O | 2.57 |
| CCOC(=O)C1CCCN(C(=O)c2cccs2)C1 (stereo not drawn) | 17.3 |
| O=C(Nc1ccccc1)c1ccccc1N=Cc1cccc(O)c1 | 18.8 |
| c1cc(CNCCCN2CCOCC2)ccn1 | 9.09 |
| O=C(COC(=O)c1ccccc1)c1ccc(Br)cc1 | 18 |
| CCOC(=O)C1(CCOc2ccccc2)CCN(C2Cc3ccccc3C2)CC1 | -53.4 |
| O=C(NCc1cccs1)c1cc(-c2ccccc2)nn1CC1CC(c2cccnc2)=NO1 (stereo not drawn) | -51.8 |
| CC1=C(C(=O)OC(C)C)C(c2cccs2)NC(=O)N1 (stereo not drawn) | 19 |
| CC(CC(=O)N1CCc2ccccc21)c1ccccc1 (stereo not drawn) | -27.3 |
| CC(C(=O)Nc1sc2c(c1C(=O)NCC1CCCO1)CCC2)N1C(=O)c2ccccc2C1=O (stereo not drawn) | -14.1 |
| COC(=O)c1ccc(C(=O)OC)c(NC(=S)N2CCCC(CO)C2)c1 (stereo not drawn) | 6.27 |
| CC(NS(C)(=O)=O)C(c1cccs1)N1CCN(c2ccccc2)CC1 (stereo not drawn) | -12.7 |
| COc1ccc(NC(=O)COC(=O)c2ccccc2SCC(=O)N2CCCC2)cc1 | -53.9 |
| CCOc1ccc(NC(=O)c2nccnc2CO)cc1 | -10.2 |
| Cc1nnc(SCc2nnc(-c3cccs3)o2)n1C1CCCCC1 | 11.5 |
| COc1ccccc1/C=C1\SC(=O)N(CCC(=O)NNC(=O)c2ccccc2Cl)C1=O | 8.9 |
| Cc1cccnc1NC(=O)c1ccc(S(=O)(=O)N2CCCCCC2)cc1 | 2.68 |

| SMILES | hERG current change (%, negative = inhibition) at 10uM [%] |
| --- | --- |
| C=CCNC(=O)c1ccccc1NC(=O)c1ccccc1C | -1.68 |
| CCOC(=O)c1ccccc1C(=O)OCC | 0.0515 |
| CSc1nnc(NC(=O)c2nc(S(=O)(=O)Cc3ccccc3)ncc2Cl)s1 | 0.719 |
| CN(CC(=O)Nc1ccc(F)c(F)c1F)C(=O)C1=NN(c2ccccc2)C(=O)CC1 | 5.7 |
| O=C(O)c1cccc(NC(=O)c2cccc(S(=O)(=O)N3CCc4ccccc43)c2)c1 | 11 |
| CN1CCc2c(sc3nc(NCCO)n(-c4cccc(Cl)c4)c(=O)c23)C1 | 0.784 |
| CCC1C2CC3C4N(C)c5ccccc5C45CC(C2C5O)N3[C@@H]1O (stereo partly drawn) | -28.5 |
| c1ccc(-c2noc(C34CC5CC(CC(C5)C3)C4)n2)cc1 | 14.7 |
| COCCNC(=O)CN(C(=O)c1ccc(N2CCCC2)nc1)c1ccc(Cl)cc1 | 2.85 |
| O=C(O)c1nn2c(c1Br)NC(c1ccccc1)CC2C(F)(F)F (stereo not drawn) | 12.2 |
| Cc1ccc(-n2ncc3c(NCc4ccccn4)ncnc32)c(C)c1 | -7.46 |
| Cc1cc2c(cc1S(=O)(=O)NC1CCCCC1C)OCC(=O)N2 (stereo not drawn) | -28.1 |
| Cc1cc(-c2nnc(CSc3nnc(NC(=O)c4ccc(C(C)(C)C)cc4)s3)o2)ccc1[N+](=O)[O-] | 4.92 |
| Cc1ccc(C2=NCCn3nc4cc([N+](=O)[O-])ccc4c32)cc1 | 8.51 |
| O=C(NCc1cn2ccsc2n1)Nc1ccc(Cl)cc1 | -1.56 |
| Cc1cc([N+](=O)[O-])nn1CC(=O)NCc1ccccc1 | 24.2 |
| O=C(Nc1ccc(NC(=O)C2CCCCC2)nc1)c1ccco1 | 0.412 |
| Cc1cccc(-c2noc(CCC(=O)Nc3ccccc3)n2)c1 | -4.5 |
| Cc1ccc(CNC(=O)C2CCN(S(=O)(=O)c3cccnc3)CC2)cc1 | -1.14 |
| Cc1ccc(-n2c(C)cc(C=C(C#N)C#N)c2C)cc1 | 4.75 |
| O=C(CCNS(=O)(=O)c1ccccc1C(F)(F)F)NCc1ccc2c(c1)OCO2 | -14.5 |
| Oc1ccccc1C=Nc1cccc2ccccc12 | 5.3 |
| COc1cccc(C(=O)Nc2nnc(S(=O)(=O)N3CCCCC3)s2)c1 | 4.03 |
| CCC(=O)Nc1c(C)cc(C)cc1Cl | 6.01 |

| SMILES | hERG current change (%, negative = inhibition) at 10uM [%] |
| --- | --- |
| CCOc1ccccc1N1CCN(C(=O)CCCc2nc3ccccc3s2)CC1 | -17.1 |
| CCCCC1(C(=O)OC)NC(c2ccc(O)cc2)C2C(=O)N(c3ccccc3)C(=O)C21 (stereo not drawn) | 2.03 |
| O=C(C[n+]1ccsc1)c1ccccc1.[Br-] | 6.28 |
| Cc1c(NC(=O)CN2CCN(C(c3ccccc3)c3ccccc3)CC2)c(=O)n(-c2ccccc2)n1C | -6.75 |
| N#Cc1ccsc1NC(=O)CN1C(=O)NC2(CCCCC2)C1=O | 4.69 |
| C#CCn1c(=NC(=O)CN2C(=O)CCC2=O)sc2cccc(OC)c21 | 1.21 |
| Clc1ccc(Cc2ccc(Cl)nn2)c(Cl)c1 | -17.4 |
| Cn1c(=O)[nH]c(=O)c2c1nc(Br)n2C/C=N/NC(N)=S | 8.85 |
| N#C/C(C(N)=O)=C1/CCc2ccccc2N1 | -9.51 |
| O=C(NCCc1csc(-c2ccc(C(F)(F)F)cc2)n1)c1cccs1 | -1.12 |
| NC(=O)N/N=C/c1cn(-c2ccccc2)nc1-c1cccnc1 | 4.92 |
| Cc1ccc(OCCN2C(=O)c3ccccc3C2=O)cc1 | -9.64 |
| c1ccc2c(c1)ccc1ncccc12 | 4.5 |
| Cc1cc(C)c(NC(=O)c2ccc3c(c2)NC(=O)C(C)S3)c(C)c1 (stereo not drawn) | -1.8 |
| C/C(=N/N1CCN(c2ccccn2)CC1)c1ccc([N+](=O)[O-])cc1 | -48.7 |
| Cc1ccc(S(=O)(=O)C2(C(=O)N3CCCC(C)C3)CC2)cc1 (stereo not drawn) | -7.54 |
| COC(=O)C1=C(c2ccc(F)cc2OCc2ccccc2)C[C@@H]2CC[C@H]1N2C(=O)NCCc1ccc(F)cc1 | 13.6 |
| O=C(O)CSc1c2c(nc3cc(C(=O)NCCN4CCOCC4)ccc13)CCC2 | -6.18 |
| CCOP(=O)(OCC)c1cc(C)c(O)c(C(C)(C)C)c1 | -3.41 |
| Cl.N=c1n(CCN2CCCCC2)c2ccccc2n1CC(O)c1ccco1 (stereo not drawn) | -55.2 |
| CC(OC(=O)CCC(=O)c1cccs1)C(=O)NC1CCCCC1C (stereo not drawn) | -6.24 |
